# Test results from PubChem BioAssay (Tox21).
# Several values for one entry are separate records, joined by “and”; a condition that tells them apart may be missing. Identical values can stand only once. The shares of active, inactive and inconclusive entries below differ from those in the screen. Where the call is inconclusive, the potency comes from a doubtful curve fit. Activity calls are given as the source filed them. Calls follow the shape of the dose curve; as a rule, active = well fitted inhibition curve with a large enough effect in the repeat runs; inconclusive = weak or mixed curves; inactive = flat fitted curve, though single readings scatter.
# Target: Voltage-gated inwardly rectifying potassium channel KCNH2 (Homo sapiens) (UniProt Q12809)
# Sequence of UniProt Q12809 (Q12809 whole entry, looked up): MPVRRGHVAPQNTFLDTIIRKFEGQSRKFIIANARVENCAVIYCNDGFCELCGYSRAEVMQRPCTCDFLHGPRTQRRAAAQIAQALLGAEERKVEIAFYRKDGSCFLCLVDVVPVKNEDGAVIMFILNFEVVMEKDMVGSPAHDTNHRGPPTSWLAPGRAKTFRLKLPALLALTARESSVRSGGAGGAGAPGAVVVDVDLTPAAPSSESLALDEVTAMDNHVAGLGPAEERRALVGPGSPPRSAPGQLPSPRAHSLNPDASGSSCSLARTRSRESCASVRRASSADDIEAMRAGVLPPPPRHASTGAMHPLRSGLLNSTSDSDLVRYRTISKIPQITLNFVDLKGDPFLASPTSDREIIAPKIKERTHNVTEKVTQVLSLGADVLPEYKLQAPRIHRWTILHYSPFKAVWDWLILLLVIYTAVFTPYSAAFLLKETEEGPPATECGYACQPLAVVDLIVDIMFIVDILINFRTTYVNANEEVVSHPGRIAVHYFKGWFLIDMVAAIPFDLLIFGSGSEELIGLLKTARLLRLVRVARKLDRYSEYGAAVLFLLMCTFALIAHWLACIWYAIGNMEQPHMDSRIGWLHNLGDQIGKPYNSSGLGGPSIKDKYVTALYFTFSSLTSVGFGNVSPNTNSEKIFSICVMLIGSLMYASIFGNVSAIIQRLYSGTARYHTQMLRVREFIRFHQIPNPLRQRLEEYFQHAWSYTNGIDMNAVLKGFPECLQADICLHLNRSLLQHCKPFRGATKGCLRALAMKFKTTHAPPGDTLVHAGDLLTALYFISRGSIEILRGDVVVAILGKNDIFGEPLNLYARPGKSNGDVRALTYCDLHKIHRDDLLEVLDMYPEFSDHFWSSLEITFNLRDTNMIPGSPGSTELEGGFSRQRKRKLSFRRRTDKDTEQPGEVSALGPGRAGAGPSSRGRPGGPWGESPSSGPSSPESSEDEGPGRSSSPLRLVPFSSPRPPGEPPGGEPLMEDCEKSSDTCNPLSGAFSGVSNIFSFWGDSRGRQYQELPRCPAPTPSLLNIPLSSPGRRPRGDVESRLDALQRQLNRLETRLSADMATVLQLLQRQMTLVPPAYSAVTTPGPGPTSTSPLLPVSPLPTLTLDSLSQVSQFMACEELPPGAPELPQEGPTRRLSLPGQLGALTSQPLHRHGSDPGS
# Test: Human Ether-a-go-go-Related Gene (hERG) channel small molecule antagonists: fluorescence cell-based qHTS assay (AID 1671200); also: nearly all actives have a fitted effect of over 50% in size
# Conditions: hERG-U2OS cells, FluxOR thallium flux fluorescence; series mostly up to 76.8 µM
# Method in brief: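 Read-out: thallium influx as a surrogate for potassium, tracked as fluorescence (480 nm ex/540 nm em) every second for 2 min after Stimulus Buffer addition in dye-loaded hERG-U2OS cells.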
# Potency is read from the fitted curve at half-maximal effect; tags tell the direction and shape of the fitted curve.
row,SMILES,Potency
1,CCc1nn(C)c(C(=O)NCc2ccc(C(C)(C)C)cc2)c1Cl,active: 21.9 µM
2,Oc1ccc(C2(c3ccc(O)cc3)CCCCC2)cc1,"inconclusive: 20.7 µM [inhibitor, partial curve]"
3,O=C1C(Cl)=C(Cl)C(=O)C(Cl)=C1Cl,"inconclusive: 38.8 µM [inhibitor, partial curve] and active: 34.7 µM"
4,Oc1ccc(C(c2ccc(O)cc2)(C(F)(F)F)C(F)(F)F)cc1,"inconclusive: 24.5 µM [inhibitor, partial curve]"
5,CC(C)C1CCC(Cc2ccc(Cl)cc2)C1(O)Cn1cncn1 (stereo not drawn),active: 34.3 µM
6,O=[N+]([O-])c1ccc(Nc2ccccc2)cc1,"inconclusive: 55.4 µM [inhibitor, single point]"
7,C=CC(=O)[O][Sn]([CH2]CCC)([CH2]CCC)[CH2]CCC,active: 6.16 µM
8,Clc1ccc(C(c2ccc(Cl)cc2)C(Cl)(Cl)Cl)cc1,"inconclusive: 7.82 µM [inhibitor, full curve] and active: 13.8 µM and inconclusive: 10.7 µM [inhibitor, partial curve]"
